Measurements published in PubChem BioAssay AID686978 (National Center for Advancing Translational Sciences (NCATS), 2013).
The campaign covered roughly 420,000 compounds. About 64,000 (15%) were called active. The shares of active, inactive and inconclusive entries below differ from those in the screen. Calls come from the whole dose curve; as a rule, active = well fitted inhibition curve with a large enough effect; inconclusive = small, poorly fitted or top-dose-only effect; inactive = flat fitted curve, though single readings scatter. No potency is given beside an inconclusive call; the fits are too rough.

Test: qHTS for Inhibitors of human tyrosyl-DNA phosphodiesterase 1 (TDP1): qHTS in cells in absence of CPT; note: nearly all actives have a fitted effect of over 55% in size
Conditions: DT40 Tdp1-/- hTDP1 cells, no CPT, ATP luminescence, 48 h; activity change, negative = growth inhibition: at 46.2 µM (top of the series) unless noted
Method in brief: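 Compound effects on proliferation are scored in DT40 Tdp1-/-;hTDP1 cells in the absence of CPT. ATP levels (CellTiter-Glo luminescence) are recorded after a ≥48 hr, 37 °C incubation.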
% is set by controls: 0 for no effect and ±100 for the full control effect; potency is the fitted concentration of half-maximal effect; tags give direction and shape of the fitted curve.

SMILES	Potency	activity change, negative = growth inhibition
COc1ccccc1C(=O)NNC(=O)c1ccc(Br)cc1	inactive	–
CCn1c(SCc2cccc(C)c2)nnc1-c1ccccc1	inconclusive [inhibitor, single point]	–
COc1ccc(CCN2CC(C(=O)NCCc3cnn(C)c3)CCC2=O)cc1 (configuration not stated)	inconclusive [inhibitor, single point]	–
O=C(/C=C/c1ccccc1)Nc1cccnc1Oc1ccccc1F	inactive	–
Cc1ccc(C(=O)N2C3C=CC(C3)C2(C(F)(F)F)C(F)(F)F)cc1 (configuration not stated)	inactive	–
CCOC(=O)c1ccc(NC(=O)CSc2nc(SC)ns2)cc1	inconclusive [inhibitor, partial curve, poor fit]	–
O=C(Nc1ccccc1C(=O)Nc1ccccc1C(=O)O)c1ccccc1	active: 11.6 µM	–
CC(OC(=O)Cc1n[nH]c(=O)c2ccccc12)C(=O)Nc1ccc(F)cc1 (configuration not stated)	inactive	–
CC1CCCCC1NS(=O)(=O)CCNC(=O)c1ccc2c(c1)OCO2 (configuration not stated)	inactive	–
Cc1ccc(C(=O)N2CCCC(CCC(=O)N3CCN(c4ccccn4)CC3)C2)cc1 (configuration not stated)	inconclusive [inhibitor, single point]	–
COc1ccc(-c2cnc3c(NC(C)=O)cc(-c4ccsc4)cn23)cc1OC	active: 20.6 µM	–
Cc1onc(-c2ccccc2)c1C(=O)N1CCc2ccccc21	–	inconclusive: -30.1% [inhibitor]
Nc1nc(NCc2ccc(Cl)cc2)c2[nH]cnc2n1	inconclusive [inhibitor, single point]	–
CCOC(=O)[C@H]1[C@H]2COc3ccc(C)cc3[C@@H]2N2C(=O)c3ccc(Cl)cc3NC(=O)[C@@]12C	inconclusive [inhibitor, single point]	–
C/C(=N\NC(=O)c1cc(C)[nH]n1)c1ccc(-c2ccccc2)cc1	inconclusive [inhibitor, partial curve]	–
O=C(CSc1ncnc2[nH]ncc12)Nc1cccc(Oc2ccccc2)c1	–	inconclusive: -33.9% [inhibitor]
Cc1cc(NC(=O)CN(C)CC(=O)Nc2ccc(Cl)cc2)no1	inconclusive [inhibitor, single point]	–
O=C(Nc1ccc2c(c1)OCO2)C1Cc2c(-c3ccc4c(c3)OCO4)ccnc2O1 (configuration not stated)	active: 6.51 µM	–
O=C(OCc1ccccc1)c1cccnc1	active: 9.44 µM	–
O=C(c1cnn2c(C(F)(F)F)cc(-c3cccs3)nc12)N1CCOCC1	inconclusive [inhibitor, partial curve]	–
CC1CCN(c2ccccc2NC(=O)c2cc([N+](=O)[O-])ccc2N2CCOCC2)CC1	active: 16.4 µM	–
Nc1ccc2cc3[nH]c4cc(N)ccc4c3nc2c1	active: 2.31 µM	–
O=C(Cc1cccc(C(F)(F)F)c1)OCC(=O)N1CCN(S(=O)(=O)c2ccc(Cl)cc2)CC1	inconclusive [inhibitor, single point]	–
Cc1cc(C)c(Cn2c3ccccc3c3cnn(CC(=O)NCCN4CCOCC4)c(=O)c32)c(C)c1	inconclusive [inhibitor, single point]	–

SMILES	Potency	activity change, negative = growth inhibition
CC[n+]1c(/C=C/c2c[nH]c3ccccc23)ccc2cc(C)ccc21	active: 1.16 µM	–
CSc1ncnc2c1ncn2CCCN1CCN(C(=O)C2CC2)CC1	inconclusive [inhibitor, partial curve, poor fit]	–
CC(=O)c1ccc(NC(=O)Nc2ccc3c(c2)N(C)C(=O)CS3)cc1	inconclusive [inhibitor, single point]	–
O=C(Nc1ccc2ccccc2c1)c1ccccc1O	active: 10.3 µM	–
Cc1ccc(S(=O)(=O)Cn2nnnc2C(CC(C)C)N2CCN(c3ccccc3)CC2)cc1 (configuration not stated)	inconclusive [inhibitor, single point]	–
CCS(=O)(=O)N1CCCC(C(=O)NCc2ccc(C)cc2)C1 (configuration not stated)	inactive	–
COc1cccc(CNc2nc3c(-c4cccc(C)c4)nnn3c3ccccc23)c1	inconclusive [inhibitor, partial curve, poor fit]	–
O=C(c1ccc(Br)cc1)c1coc2ccc(O)cc12	inconclusive [inhibitor, single point]	–
CCN(CC)C(=O)COc1ccc(N(C)S(=O)(=O)c2ccc(NC(C)=O)cc2)cc1	inactive	–
CCOC(=O)N=Nc1c2ccccc2c2nc3no[nH]c3nc12	active: 1.3 µM	–
COc1cccc(OCC(=O)NN=C2c3ccccc3-c3ccccc32)c1	inconclusive [inhibitor, partial curve]	–
CC1=CCC2COC(c3ccc[n+](Cc4ccccc4)c3)C1C2 (configuration not stated)	active: 2.91 µM	–
COc1ccc(C(CC(=O)NCc2ccccc2)C(C)C)cc1 (configuration not stated)	inconclusive [inhibitor, single point]	–
COc1ccc(S(=O)(=O)N2CCCCCC2)cc1NC(=O)c1ccccc1S(C)(=O)=O	inactive	–
O=C(COC(=O)COc1ccc(Cl)cc1)NCCNC(=O)COC(=O)COc1ccc(Cl)cc1	inconclusive [inhibitor, partial curve, poor fit]	–
COC(=O)C1=C(C)N=C2SC(C#N)=C(N)N2C1c1ccc(OCc2ccccc2)cc1 (configuration not stated)	inconclusive [inhibitor, single point]	–
CCN(Cc1ccccc1)C(=O)c1cc(-c2ccc(OC)c(OC)c2)nc2ccccc12	inconclusive [inhibitor, single point]	–
CC(=O)Nc1ccc(NC(=O)CCC(=O)c2ccc(C)cc2)cc1	inactive	–
Cc1ccc(C23CC4CC(CC(C(=O)NC(C)C(N)=O)(C4)C2)C3)cc1 (configuration not stated)	inactive	–
CCN(CC)C(=O)C1CCCN(c2ccccc2[N+](=O)[O-])C1 (configuration not stated)	inactive	–
CC1(c2ccccc2)NC(=O)N(CC(=O)N2CCN(S(=O)(=O)c3cccs3)CC2)C1=O (configuration not stated)	inactive	–
Cc1ccc(NS(=O)(=O)c2ccc(C(=O)Nc3nncs3)cc2)cc1	inconclusive [inhibitor, single point]	–
CCOc1ccccc1NC(=O)c1cnc(N2CCOCC2)c2ccccc12	active: 18.4 µM	–
